According to PubChem BioAssay (NCI):
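A five-concentration, 48-hour dose response in 96-well plates underlies each endpoint, interpolated linearly between surrounding concentrations. At the GI50, growth is halved.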 A number of entries come with more than one value. The list is limited to them. The source may hold further records. The values listed for one entry repeat one measurement (runs, samples, wells, individuals or studies). A tag in brackets gives the origin of a value. The letters are not those of the source and start again with each entry.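 TGI is the concentration that stops growth completely.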 *1 amine or outer side, *2 acyl side, *3 side chain or, on linkers, in order; H or OH if unused. Where a SMILES comes first, the peptide text is derived from it. Bridges are numbered along the chain shown (N, C = ends). Roman numbers before positions name the chains, in order. [ ]: non-standard residue; d: D form. Actinocin(1to9) = Cc1c2oc3c(C)ccc(C(=O)[*:2])c3nc-2c(C(=O)[*:1])c(N)c1=O; NMeY = CN[CH](Cc1ccc(O)cc1)C(=O)O; Sar = CNCC(=O)O

Columns and labels:
Assay in all cases: NCI-60 cell line screen, 48 h
NCI-H522 lung = tested on: NCI-H522 lung
EKVX NSCLC = tested on: EKVX NSCLC
OVCAR-4 ovarian = tested on: OVCAR-4 ovarian
OVCAR-5 ovarian = tested on: OVCAR-5 ovarian
PC-3 prostate = tested on: PC-3 prostate
DU-145 prostate = tested on: DU-145 prostate
UACC-257 melanoma = tested on: UACC-257 melanoma
MDA-MB-435 = tested on: MDA-MB-435
MALME-3M melanoma = tested on: MALME-3M melanoma
UO-31 renal = tested on: UO-31 renal
SK-MEL-5 melanoma = tested on: SK-MEL-5 melanoma
OVCAR-3 ovarian = tested on: OVCAR-3 ovarian
SW-620 colon = tested on: SW-620 colon
SK-OV-3 ovarian = tested on: SK-OV-3 ovarian
SK-MEL-28 melanoma = tested on: SK-MEL-28 melanoma
M14 melanoma = tested on: M14 melanoma
OVCAR-8 ovarian = tested on: OVCAR-8 ovarian
NCI-H23 lung = tested on: NCI-H23 lung
A498 renal = tested on: A498 renal
SF-268 CNS = tested on: SF-268 CNS
SF-539 CNS = tested on: SF-539 CNS
KM12 colon = tested on: KM12 colon
TK-10 renal = tested on: TK-10 renal
LOX IMVI melanoma = tested on: LOX IMVI melanoma
HOP-92 NSCLC = tested on: HOP-92 NSCLC
HOP-62 NSCLC = tested on: HOP-62 NSCLC
MDA-MB-231 breast = tested on: MDA-MB-231 breast
HCT-15 colon = tested on: HCT-15 colon
IGROV1 ovarian = tested on: IGROV1 ovarian
RXF 393 renal = tested on: RXF 393 renal
T-47D breast = tested on: T-47D breast
UACC-62 melanoma = tested on: UACC-62 melanoma
SK-MEL-2 melanoma = tested on: SK-MEL-2 melanoma
HCC-2998 colon = tested on: HCC-2998 colon
HT29 colon = tested on: HT29 colon

CCC1=C(CC2NCCc3ccccc32)CC2c3cc(OC)c(OC)cc3CCN2C1 (stereo not drawn)
TGI (NCI-H522 lung): 15.7 µM [sample A] and 1.12 µM [sample B] | TGI (EKVX NSCLC): 35.2 µM [sample A] and 1.12 µM [sample B] | TGI (OVCAR-4 ovarian): 19.6 µM [sample A] and 835 nM [sample B] | TGI (OVCAR-5 ovarian): 80.5 µM [sample A] and 2.32 µM [sample B] | TGI (PC-3 prostate): 19.2 µM [sample A] and 1.6 µM [sample B]

COc1ccc(CC2C(=O)OC(C)C(NC(=O)c3c4nc5c(C(=O)NC6C(=O)NC(C(C)C)C(=O)N7CCCC7C(=O)N(C)CC(=O)N(C)C(Cc7ccc(OC)cc7)C(=O)OC6C)ccc(C)c5oc-4c(C)c(=O)c3N)C(=O)NC(C(C)C)C(=O)N3CCCC3C(=O)N(C)CC(=O)N2C)cc1 (stereo not drawn) (I: TVP[Sar][NMeY](Me) / II: TVP[Sar][NMeY](Me); ester I:1-I:C, II:1-II:C; linker I:N-II:N via Actinocin(1to9); configuration not given here)
TGI (DU-145 prostate): < 10 nM [sample A] and > 1 µM [sample B] | TGI (UACC-257 melanoma): < 10 nM [sample A] and 484 nM [sample B] | TGI (MDA-MB-435): < 10 nM [sample A] and 201 nM [sample B] | TGI (MALME-3M melanoma): < 10 nM [sample A] and 197 nM [sample B] | GI50 (UO-31 renal): < 10 nM [sample A, mean of 2 tests] and 147 nM [sample B, mean of 2 tests] | TGI (UO-31 renal): 21.3 nM [sample A, mean of 2 tests] and 684 nM [sample B, mean of 2 tests] | TGI (SK-MEL-5 melanoma): < 10 nM [sample A] and > 445 nM [sample B] | TGI (OVCAR-3 ovarian): < 10 nM [sample A] and 226 nM [sample B] | TGI (SW-620 colon): < 10 nM [sample A] and > 1 µM [sample B] | TGI (SK-OV-3 ovarian): < 10 nM [sample A, 1 test] and 983 nM [sample B, mean of 2 tests] | TGI (SK-MEL-28 melanoma): < 10 nM [sample A] and 190 nM [sample B] | TGI (M14 melanoma): < 10 nM [sample A, 1 test] and 210 nM [sample B, mean of 2 tests] | TGI (OVCAR-8 ovarian): 19.1 nM [sample A] and 332 nM [sample B] | TGI (NCI-H23 lung): < 10 nM [sample A] and 143 nM [sample B] | TGI (A498 renal): < 10 nM [sample A] and 188 nM [sample B] | TGI (SF-268 CNS): < 10 nM [sample A, 1 test] and > 493 nM [sample B, mean of 2 tests] | TGI (SF-539 CNS): < 10 nM [sample A] and 284 nM [sample B] | TGI (KM12 colon): < 10 nM [sample A] and 222 nM [sample B] | GI50 (TK-10 renal): < 10 nM [sample A, 1 test] and 130 nM [sample B, mean of 2 tests] | TGI (LOX IMVI melanoma): < 10 nM [sample A, 1 test] and > 1 µM [sample B, 1 test] | TGI (HOP-92 NSCLC): 33 nM [sample A, mean of 2 tests] and 480 nM [sample B, mean of 2 tests] | TGI (HOP-62 NSCLC): < 10 nM [sample A] and 195 nM [sample B] | GI50 (MDA-MB-231 breast): < 10 nM [sample A, mean of 2 tests] and 178 nM [sample B, mean of 2 tests] | TGI (MDA-MB-231 breast): < 15 nM [sample A, mean of 2 tests] and > 722 nM [sample B, mean of 2 tests] | GI50 (HCT-15 colon): < 10 nM [sample A, 1 test] and 175 nM [sample B, 1 test] | TGI (IGROV1 ovarian): < 10 nM [sample A, 1 test] and > 577 nM [sample B, mean of 2 tests] | TGI (RXF 393 renal): < 10 nM [sample A, 1 test] and 143 nM [sample B, mean of 2 tests] | TGI (T-47D breast): < 10 nM [sample A] and > 291 nM [sample B] | TGI (UACC-62 melanoma): < 10 nM [sample A] and 112 nM [sample B] | TGI (SK-MEL-2 melanoma): < 10 nM [sample A, 1 test] and 165 nM [sample B, mean of 2 tests] | TGI (HCC-2998 colon): 10.4 nM [sample A] and 218 nM [sample B] | TGI (PC-3 prostate): 23.9 nM [sample A] and 245 nM [sample B] | TGI (HT29 colon): 10.6 µM [sample A, 1 test] and 215 nM [sample B, mean of 2 tests]
